Measurements taken from PMC10079162 (Nature Communications, 2023).

Target: T1, human serum albumin (Homo sapiens, UniProt P02768)
T1 construct: also called HSA
Assay: BLI; format and conditions not told in the main text (methods are in the Supplementary Materials)
Conditions: both partners purified

- binding result: binds
B1: Nb.b201 A31D H53P T55G (VHH)
VHH: QVQLQESGGGLVQAGGSLRLSCAASGYISDDYYMGWYRQAPGKEREFVATITPGGNTYYADSVKGRFTISRDNAKNTVYLQMNSLKPEDTAVYYCAVLETRSYSFRYWGQGTQVTVSS
notes: also called triple mutant; source: HEK293 cells; obtained at high purity
